Laboratory results published in PubChem BioAssay AID504845 (National Center for Advancing Translational Sciences (NCATS), 2011).
The campaign covered roughly 390,000 compounds. About 150 (0.038%) were called active. The shares of active, inactive and inconclusive entries below differ from those in the screen. Calls follow the shape of the dose curve; as a rule, active = well fitted inhibition curve with a large enough effect; inconclusive = small, poorly fitted or top-dose-only effect; inactive = no such curve, though single readings can be large or run the other way. A potency beside an inconclusive call is a rough fit, not a confirmed value.

Biological target: Regulator of G-protein signaling 4 (Homo sapiens) (UniProt P49798)
UniProt P49798, sequence (P49798 whole entry, looked up): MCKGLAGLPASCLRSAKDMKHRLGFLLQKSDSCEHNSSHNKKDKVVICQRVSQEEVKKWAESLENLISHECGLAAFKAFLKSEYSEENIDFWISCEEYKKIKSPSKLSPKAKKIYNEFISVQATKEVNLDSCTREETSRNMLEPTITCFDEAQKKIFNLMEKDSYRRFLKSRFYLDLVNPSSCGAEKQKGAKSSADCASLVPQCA
Assay: Inhibitors of Regulator of G Protein Signaling (RGS) 4: qHTS; also: nearly all actives have a fitted effect of over 75% in size
Conditions: Transcreener GDP fluorescence polarization, RGS4-accelerated GTP hydrolysis; series mostly up to 114 µM; activity change, negative = inhibition: at the top concentration
Method in brief: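 MLSMR compounds (23 nl, pin-transferred) preincubated 10 min at room temperature with a 500nM (2x) first reagent, then RGS4 at 900nM (2x) plus Transcreener GDP mix added; fluorescence polarization (620/688 nm) read before and after 90 min at 30 °C.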
% is scaled to controls: 0 for no effect and ±100 for the full control effect; potency is read from the fitted curve at half-maximal effect; tags tell the direction and shape of the fitted curve.

Row | SMILES | activity change, negative = inhibition | Potency
1 | CS(=O)(=O)N1Cc2ccccc2CC1C(=O)O (centres undefined) | inactive: 2.74% | 
2 | Cc1ccc(CNC(=O)[C@]2(C(F)(F)F)C[C@H](CCc3ccccc3)CCCO2)o1 | inactive: -38.5% | 
3 | O=C(Nc1ccc(F)cc1)c1nc(S(=O)(=O)Cc2ccccc2)ncc1Cl |  | inconclusive: 44.7 µM [inhibitor, partial curve, poor fit]
4 | CNc1nnc(CSc2nc3ccccc3s2)s1 | inactive: -6.87% | 
5 | CC/C=C/[C@@H](c1ccccc1)[C@H](C)C(O)CC(=O)SC(C)(C)C (some centres undefined) | inactive: 4.58% | 
6 | Cc1ccc(OCC(=O)Nc2cc(C(=O)O)cc(C(=O)O)c2)cc1C |  | inconclusive: 22.4 µM [inhibitor, full curve, poor fit]
7 | COCCn1c(SCCCc2ccccc2)nc2c1c(=O)[nH]c(=O)n2C |  | inconclusive: 89.1 µM [inhibitor, single point]
8 | COc1ccc(/C=C(\NC(=O)c2ccc(C)cc2)C(=O)NCCCn2ccnc2)cc1OC | inactive: -8.69% | 
9 | O=C(NS(=O)(=O)c1ccc2c(c1)OCCO2)c1ccccc1 |  | inconclusive: 100 µM [inhibitor, partial curve, poor fit]
10 | COc1ccc(NC(=O)c2oc3ccc(S(=O)(=O)N(C)C4CCCCC4)cc3c2C)cc1Cl | inactive: -6.22% | 
11 | CN(O)/C=C/C(=O)c1ccc(Br)cc1 |  | inconclusive: 56.2 µM [inhibitor, partial curve, poor fit]
12 | CCCN=Cc1ccc(O)cc1 |  | inconclusive: 56.2 µM [inhibitor, partial curve, poor fit]
13 | O=c1oc2ccccc2c(N2CCCCC2)c1CN1CCCC1 | inactive: 18.7% | 
14 | CS(=O)(=O)c1ccc(N)c(SSc2cc(S(C)(=O)=O)ccc2N)c1 |  | inconclusive: 17.8 µM [inhibitor, full curve, poor fit]
15 | O=C1NC(=O)/C(=C\c2ccccc2Oc2ccc(F)c(F)c2)S1 |  | inconclusive: 89.1 µM [inhibitor, single point]
16 | COc1ccc(CCN(C)c2ncnc3sccc23)cc1OC | inactive: 4.92% | 
17 | O=C(Nc1nc(-c2ccco2)c(-c2ccco2)s1)c1ccco1 |  | inconclusive: 50.1 µM [inhibitor, partial curve, poor fit]
18 | CCOc1ccc(NCc2cccn2-c2nnc(N3CCC(C(=O)NCCCN4C(C)CCCC4C)CC3)s2)cc1 (centres undefined) | inactive: -5.48% [at 11.4 µM] | 
19 | Cc1cccc2nc(CSc3nc4[nH]ncc4c(=O)n3-c3ccccc3Cl)cc(=O)n12 |  | inconclusive: 89.1 µM [inhibitor, single point]
20 | CC1CCCCN1C(=O)COC(=O)c1n[nH]c2ccccc12 (centres undefined) | inactive: 1.75% | 
21 | COc1cccc(N2CCN(C(=O)c3ccc(=O)oc3)CC2C)c1 (centres undefined) | inactive: 2.09% | 
22 | COCCCn1c(=O)/c(=C\c2cccc(OC)c2OC)s/c1=C(/C#N)C(=O)Nc1ccc(C(=O)O)cc1 | inactive: 2.99% [at 11.4 µM] | 
23 | CN(/N=C/c1cccnc1)C1=NS(=O)(=O)c2ccccc21 |  | inconclusive: 79.4 µM [inhibitor, single point]

Row | SMILES | activity change, negative = inhibition | Potency
24 | COC(=O)Cc1ccc2sc(-c3ccccc3)nc2c1 | inactive: -12.5% | 
25 | Cn1c2c(c(=O)n3ncnc13)CCCC2 |  | inconclusive: 70.8 µM [inhibitor, partial curve, poor fit]
26 | O=c1nc2onnc2c(C=NO)[nH]1 |  | inconclusive: 17.8 µM [inhibitor, full curve, poor fit]
27 | CCC1(CC)NC(=O)N(CC(=O)OCC(=O)Nc2sccc2C#N)C1=O |  | inconclusive: 89.1 µM [inhibitor, single point]
28 | CC(C(=O)OCC(=O)c1ccccc1)N1C(=O)c2ccccc2C1=O (centres undefined) |  | inconclusive: 89.1 µM [inhibitor, partial curve, poor fit]
29 | COc1ccc(-c2nc3cc(C)ccn3c2NC(=O)c2cccc(F)c2)cc1 | inactive: -4.3% | 
30 | C=CCSc1nnc(C)c(/C=C/Nc2ccc(Cl)cc2)n1 |  | inconclusive: 44.7 µM [inhibitor, partial curve, poor fit]
31 | O=C(NC(=S)Nc1ccc(N2CCOCC2)cc1)c1ccc2c(c1)OCCO2 |  | inconclusive: 31.6 µM [inhibitor, full curve, poor fit]
32 | COc1ccc(N(C)S(=O)(=O)c2cccc(C(=O)N3CCN(Cc4ccc5c(c4)OCO5)CC3)c2)cc1 |  | inconclusive: 100 µM [inhibitor, single point]
33 | O=C(COC(=O)/C=C/C(=O)OCC(=O)NC12CC3CC(CC(C3)C1)C2)NC12CC3CC(CC(C3)C1)C2 | inactive: -22.9% | 
34 | CC(C)(C)c1nc2ccccc2c2nnc(SCC(=O)NCc3ccco3)n12 | inactive: 20.7% | 
35 | CCCCn1nnc(NC(=S)NC(=O)c2cccs2)n1 |  | inconclusive: 79.4 µM [inhibitor, partial curve, poor fit]
36 | NC(=O)C1=C(c2ccccc2)c2ccccc2C1=O |  | inconclusive: 17.8 µM [inhibitor, full curve, poor fit]
37 | O=C(COc1ccc(/C=N/NC(=O)c2cc3ccccc3o2)cc1Br)Nc1ccccc1 |  | inconclusive: 31.6 µM [inhibitor, partial curve, poor fit]
38 | CCN(CC)c1ccc(C(=O)NNC(=O)CCNC(=O)c2ccccc2)cc1 |  | inconclusive: 100 µM [inhibitor, single point]
39 | Cc1nc(N)[nH]c(=O)c1CCCNc1ccc(CCC2(CCl)OCCO2)cc1 |  | inconclusive: 100 µM [inhibitor, partial curve, poor fit]
40 | COc1cc(/C=C/C(=O)c2ccc3c(c2)OCCO3)cc(Br)c1OCC(=O)N(C)C |  | inconclusive: 56.2 µM [inhibitor, partial curve, poor fit]
41 | Cn1cc(CN2CCc3ccccc3C2)c2ccccc21 | inactive: 16.3% | 
42 | Cc1cccc(/C=N/NC(=O)c2cc(C)nc3ccccc23)n1 | inactive: 12.3% | 
43 | CCOC(=O)c1ccccc1NC(=O)CSc1nnnn1C |  | inconclusive: 79.4 µM [inhibitor, single point]
44 | Cc1nc(SCC(=O)c2ccccc2)c(C#N)c(-c2ccco2)c1C(=O)NCc1ccco1 |  | inconclusive: 35.5 µM [inhibitor, partial curve, poor fit]
45 | Cc1ccccc1-c1ccc(C(=O)NCc2ccccc2)o1 | inactive: 12.3% | 
46 | COc1cc(/C=C2\C(=O)N(c3ccc(S(N)(=O)=O)cc3)N=C2C)ccc1OC(=O)c1ccco1 |  | inconclusive: 28.2 µM [inhibitor, full curve, poor fit]

Row | SMILES | activity change, negative = inhibition | Potency
47 | C[C@H](CO)N1C[C@H](C)[C@@H](CN(C)C(=O)Nc2ccc(C(F)(F)F)cc2)Oc2c(NC(=O)Nc3ccc(C(F)(F)F)cc3)cccc2C1=O | inactive: -9.78% | 
48 | CCOC(=O)C1=C(C)Nc2nc(=S)[nH]n2C1c1ccc(Cl)cc1 (centres undefined) |  | inconclusive: 50.1 µM [inhibitor, partial curve, poor fit]
49 | CN1CCN(NS(=O)(=O)c2ccc(Cl)s2)CC1 |  | inconclusive: 56.2 µM [inhibitor, partial curve, poor fit]
50 | COc1cccc(NC(=O)CSc2nnc(Cc3cccs3)n2-c2ccc(C)cc2)c1 | inactive: -13.6% | 
51 | CCCN1CNc2c(c(=O)[nH]c(=S)n2CCc2ccc(Cl)cc2Cl)C1 | inactive: 14.8% | 
52 | N#CC(Sc1ccccn1)c1ccc(Cl)cc1Cl (centres undefined) |  | inconclusive: 50.1 µM [inhibitor, partial curve, poor fit]
53 | CN1CCN(c2ccc(CNS(=O)(=O)c3ccc(F)cc3Cl)cc2)CC1 | inactive: 17.2% | 
54 | O=C(Nc1ccc(Br)cn1)c1ccc2nccnc2c1 |  | inconclusive: 28.2 µM [inhibitor, full curve, poor fit]
55 | C=CCn1c(SCc2ccccc2)nc2scc(-c3ccc(C)o3)c2c1=O |  | inconclusive: 100 µM [inhibitor, partial curve, poor fit]
56 | COc1ccc(OC)c(-c2noc(CSc3nnc(Cc4ccccc4)n3-c3cccc(C)c3)n2)c1 | inactive: -12.2% | 
57 | CCOC(=O)Cc1c(C)nc2c(-c3ccc(Cl)cc3)cnn2c1C |  | inconclusive: 79.4 µM [inhibitor, partial curve, poor fit]
58 | CC(=O)c1cccc(S(=O)(=O)N2CCCC(c3nc(-c4ccc(C)o4)no3)C2)c1 (centres undefined) | inactive: -3.05% | 
59 | CCOc1ccc(C(=O)CC(Sc2ccc(C)cc2)C(=O)O)cc1 (centres undefined) |  | inconclusive: 17.8 µM [inhibitor, full curve, poor fit]
60 | CC(C)CCNC(=O)CSCc1cnn(-c2ccccc2)c1-n1cccc1 | inactive: -13.1% | 
61 | CCCCC1=CC2=CC(=O)C(C)(OC(=O)CCc3ccccc3)C(=O)C2=CO1 (centres undefined) |  | inconclusive: 56.2 µM [inhibitor, partial curve, poor fit]
62 | CCn1c(COc2cccc(C)c2)nnc1SCC(=O)NC1CCCC1 |  | inconclusive: 39.8 µM [inhibitor, partial curve, poor fit]
63 | Cc1ccc(S(=O)(=O)N2CCCCC2)cc1NC(=O)CCc1nc2ccccc2c(=O)[nH]1 |  | inconclusive: 79.4 µM [inhibitor, partial curve, poor fit]
64 | Cc1ccccc1OCC(=O)N/N=C/c1ccc(N2CCOCC2)o1 |  | inconclusive: 50.1 µM [inhibitor, partial curve, poor fit]
65 | COCCCN1CCc2[nH]c(=S)[nH]c(=O)c2C1 |  | inconclusive: 100 µM [inhibitor, single point]
66 | CC(Oc1ccc(Br)cc1)C(=O)NC1CCN(Cc2ccccc2)CC1 (centres undefined) | inactive: 3.16% | 
67 | CCCCC/C(=N\NC(=O)CCC(=O)NCc1ccccc1)c1ccccc1 | inactive: 23% | 
68 | COc1cc(-c2noc(C)c2/C=C/c2cccc([N+](=O)[O-])c2)cc(OC)c1OC |  | inconclusive: 44.7 µM [inhibitor, partial curve, poor fit]
69 | CCOC(=O)c1c(C)oc2c1c(CN1CCN(C(=O)OCC)CC1)c(O)c1ccccc12 |  | inconclusive: 17.8 µM [inhibitor, full curve, poor fit]
